# Source: the supplement of paper PMC8728848
# This is one part of the list.
# Tests used:
# Experiment in all cases: glycan array binding signal (z-score within array); higher = stronger binding
# Details in all cases: glycan notation: IUPAC condensed, linker removed
# [1] = molecular target: GlcNAc(b1-4)GlcNAc(b1-4)GlcNAc(b1-4)GlcNAc(b1-4)GlcNAc
# Summary of the method: (§1)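 Glycan array binding is given as a within-array Z-score, which can be read as non-binding when negative. The arrays, 3228 of them, came from the Consortium for Functional Glycomics database and were retained only where the protein sequence was available. Z-scores were averaged across arrays of the same protein sequence at different concentrations or buffers and across linkers.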
# [2] = molecular target: GlcNAc(b1-4)GlcNAc(b1-4)GlcNAc(b1-4)GlcNAc(b1-4)GlcNAc(b1-4)GlcNAc
# Summary of the method: as §1
# [3] = molecular target: GlcNAc(b1-4)[GlcNAc(b1-6)]GalNAc
# Summary of the method: as §1
# [4] = molecular target: GlcNAc(b1-6)Gal(b1-4)GlcNAc
# Summary of the method: as §1
# [5] = molecular target: GlcNAc(b1-6)GalNAc
# Summary of the method: as §1
# [6] = molecular target: GlcNAc6S(b1-3)Gal(b1-4)GlcNAc
# Summary of the method: as §1
# [7] = molecular target: Kdn(a2-3)Gal(b1-3)GalNAc
# Summary of the method: as §1
# [8] = molecular target: Kdn(a2-3)Gal(b1-3)GlcNAc
# Summary of the method: as §1
# [9] = molecular target: Kdn(a2-3)Gal(b1-4)Glc
# Summary of the method: as §1
# [10] = molecular target: Kdn(a2-3)Gal(b1-4)GlcNAc
# Summary of the method: as §1
# [11] = molecular target: Kdn(a2-3)Gal(b1-4)[Fuc(a1-3)]GlcNAc
# Summary of the method: as §1
# [12] = molecular target: Kdn(a2-6)Gal(b1-4)GlcNAc
# Summary of the method: as §1
# [13] = molecular target: Man(a1-2)Man(a1-2)Man(a1-3)Man
# Summary of the method: as §1
# [14] = molecular target: Man(a1-2)Man(a1-2)Man(a1-6)[Man(a1-3)]Man
# Summary of the method: as §1
# [15] = molecular target: Man(a1-2)Man(a1-3)Man
# Summary of the method: as §1
# [16] = molecular target: Man(a1-2)Man(a1-3)[Man(a1-2)Man(a1-6)]Man
# Summary of the method: as §1
# [17] = molecular target: Man(a1-2)Man(a1-3)[Man(a1-2)Man(a1-6)]Man(a1-6)[Man(a1-2)Man(a1-2)Man(a1-3)]Man
# Summary of the method: as §1
# [18] = molecular target: Man(a1-2)Man(a1-3)[Man(a1-2)Man(a1-6)]Man(a1-6)[Man(a1-2)Man(a1-2)Man(a1-3)]Man(b1-4)GlcNAc(b1-4)GlcNAc
# Summary of the method: as §1
# [19] = molecular target: Man(a1-2)Man(a1-3)[Man(a1-6)]Man(a1-6)[Man(a1-2)Man(a1-3)]Man(b1-4)GlcNAc(b1-4)GlcNAc
# Summary of the method: as §1
# [20] = molecular target: Man(a1-2)Man(a1-6)[Man(a1-3)]Man(a1-6)[Man(a1-2)Man(a1-2)Man(a1-3)]Man
# Summary of the method: as §1
# [21] = molecular target: Man(a1-2)Man(a1-6)[Man(a1-3)]Man(a1-6)[Man(a1-2)Man(a1-2)Man(a1-3)]Man(b1-4)GlcNAc(b1-4)GlcNAc
# Summary of the method: as §1
# [22] = molecular target: Man(a1-3)[Man(a1-6)]Man
# Summary of the method: as §1
# [23] = molecular target: Man(a1-3)[Man(a1-6)]Man(a1-6)[Man(a1-2)Man(a1-3)]Man(b1-4)GlcNAc(b1-4)GlcNAc
# Summary of the method: as §1
# [24] = molecular target: Man(a1-3)[Man(a1-6)]Man(a1-6)[Man(a1-3)]Man
# Summary of the method: as §1
# [25] = molecular target: Man(a1-3)[Man(a1-6)]Man(a1-6)[Man(a1-3)]Man(b1-4)GlcNAc(b1-4)GlcNAc
# Summary of the method: as §1
# [26] = molecular target: Man(a1-3)[Man(a1-6)]Man(b1-4)GlcNAc(b1-4)GlcNAc
# Summary of the method: as §1
# [27] = molecular target: Man(a1-3)[Man(a1-6)]Man(b1-4)GlcNAc(b1-4)[Fuc(a1-6)]GlcNAc
# Summary of the method: as §1
# [28] = molecular target: Man(a1-6)Man
# Summary of the method: as §1
# [29] = molecular target: Man(b1-4)GlcNAc
# Summary of the method: as §1
# [30] = molecular target: MurNAc(b1-4)GlcNAc
# Summary of the method: as §1
# [31] = molecular target: Neu5Ac(a2-3)Gal
# Summary of the method: as §1
# [32] = molecular target: Neu5Ac(a2-3)Gal(b1-3)GalNAc
# Summary of the method: as §1
# [33] = molecular target: Neu5Ac(a2-3)Gal(b1-3)GalNAc(b1-3)Gal(a1-4)Gal(b1-4)Glc
# Summary of the method: as §1
# [34] = molecular target: Neu5Ac(a2-3)Gal(b1-3)GalNAc(b1-4)[Neu5Ac(a2-3)]Gal(b1-4)Glc
# Summary of the method: as §1
# [35] = molecular target: Neu5Ac(a2-3)Gal(b1-3)GalNAc(b1-4)[Neu5Ac(a2-8)Neu5Ac(a2-3)]Gal(b1-4)Glc
# Summary of the method: as §1
# [36] = molecular target: Neu5Ac(a2-3)Gal(b1-3)GalNAc6S
# Summary of the method: as §1
# [37] = molecular target: Neu5Ac(a2-3)Gal(b1-3)GlcNAc
# Summary of the method: as §1
# [38] = molecular target: Neu5Ac(a2-3)Gal(b1-3)GlcNAc(b1-2)Man
# Summary of the method: as §1
# [39] = molecular target: Neu5Ac(a2-3)Gal(b1-3)GlcNAc(b1-2)Man(a1-3)[GlcNAc(b1-4)][Neu5Ac(a2-3)Gal(b1-3)GlcNAc(b1-2)Man(a1-6)]Man(b1-4)GlcNAc(b1-4)GlcNAc
# Summary of the method: as §1
# [40] = molecular target: Neu5Ac(a2-3)Gal(b1-3)GlcNAc(b1-2)Man(a1-3)[Neu5Ac(a2-3)Gal(b1-3)GlcNAc(b1-2)Man(a1-6)]Man(b1-4)GlcNAc(b1-4)GlcNAc
# Summary of the method: as §1
# [41] = molecular target: Neu5Ac(a2-3)Gal(b1-3)GlcNAc(b1-3)Gal(b1-3)GlcNAc
# Summary of the method: as §1
# [42] = molecular target: Neu5Ac(a2-3)Gal(b1-3)GlcNAc(b1-3)Gal(b1-4)GlcNAc
# Summary of the method: as §1
# [43] = molecular target: Neu5Ac(a2-3)Gal(b1-3)GlcNAc(b1-3)GalNAc
# Summary of the method: as §1
# [44] = molecular target: Neu5Ac(a2-3)Gal(b1-3)GlcNAc(b1-4)Gal(b1-4)Glc
# Summary of the method: as §1
# [45] = molecular target: Neu5Ac(a2-3)Gal(b1-3)GlcNAc(b1-6)GalNAc
# Summary of the method: as §1
binder,measurement,setting,value
NKR-PIC (Mus musculus) (protein) GTGQKPSREKCCVFIQENLNKTTDCSVNLECPQDWLLHRDKCFHVSQVSNTWEEGQADCGRKGATLLLIQDQEELRFLLDSIKEKYNSFWIGLRFTLPDMNWKWINGTTFNSDVLKITGVTENGSCASILGDKVTPESCASDNRWICQKELNHETPSNDSGT,glycan array binding signal (z-score),[1],2.15
same,glycan array binding signal (z-score),[2],4.62
same,glycan array binding signal (z-score),[3],1.37
same,glycan array binding signal (z-score),[4],2.38
same,glycan array binding signal (z-score),[5],0.849
same,glycan array binding signal (z-score),[6],-0.053
same,glycan array binding signal (z-score),[7],-0.288
same,glycan array binding signal (z-score),[8],-0.298
same,glycan array binding signal (z-score),[9],-0.305
same,glycan array binding signal (z-score),[10],-0.346
same,glycan array binding signal (z-score),[11],-0.345
same,glycan array binding signal (z-score),[12],-0.321
same,glycan array binding signal (z-score),[13],-0.291
same,glycan array binding signal (z-score),[14],-0.394
same,glycan array binding signal (z-score),[15],-0.25
same,glycan array binding signal (z-score),[16],-0.264
same,glycan array binding signal (z-score),[17],-0.259
same,glycan array binding signal (z-score),[18],-0.285
same,glycan array binding signal (z-score),[19],-0.325
same,glycan array binding signal (z-score),[20],-0.367
same,glycan array binding signal (z-score),[21],-0.366
same,glycan array binding signal (z-score),[22],-0.357
same,glycan array binding signal (z-score),[23],-0.311
same,glycan array binding signal (z-score),[24],-0.401
same,glycan array binding signal (z-score),[25],-0.374
same,glycan array binding signal (z-score),[26],-0.292
same,glycan array binding signal (z-score),[27],-0.37
same,glycan array binding signal (z-score),[28],-0.327
same,glycan array binding signal (z-score),[29],-0.273
same,glycan array binding signal (z-score),[30],4.79
same,glycan array binding signal (z-score),[31],-0.358
same,glycan array binding signal (z-score),[32],-0.34
same,glycan array binding signal (z-score),[33],-0.281
same,glycan array binding signal (z-score),[34],-0.3
same,glycan array binding signal (z-score),[35],-0.336
same,glycan array binding signal (z-score),[36],-0.375
same,glycan array binding signal (z-score),[37],-0.301
same,glycan array binding signal (z-score),[38],-0.317
same,glycan array binding signal (z-score),[39],-0.369
same,glycan array binding signal (z-score),[40],-0.39
same,glycan array binding signal (z-score),[41],-0.343
same,glycan array binding signal (z-score),[42],0.067
same,glycan array binding signal (z-score),[43],-0.295
same,glycan array binding signal (z-score),[44],-0.365
same,glycan array binding signal (z-score),[45],-0.359
